Measured values taken from PMC4336329 (PLoS ONE, 2015).
The campaign covered roughly 310,000 compounds. About 14,000 (4.5%) showed an effect of 50% or more. The effect is printed as a negative number. Some of the results follow.

target: human ether-à-go-go-related gene (hERG) potassium channel (human, UniProt Q12809); assay: primary screen, population patch clamp on CHO cells stably expressing hERG
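Note: peak tail current of the secondary pulse compared with the same well before compound.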

Chain of human ether-à-go-go-related gene (hERG) potassium channel (Q12809 whole entry, looked up): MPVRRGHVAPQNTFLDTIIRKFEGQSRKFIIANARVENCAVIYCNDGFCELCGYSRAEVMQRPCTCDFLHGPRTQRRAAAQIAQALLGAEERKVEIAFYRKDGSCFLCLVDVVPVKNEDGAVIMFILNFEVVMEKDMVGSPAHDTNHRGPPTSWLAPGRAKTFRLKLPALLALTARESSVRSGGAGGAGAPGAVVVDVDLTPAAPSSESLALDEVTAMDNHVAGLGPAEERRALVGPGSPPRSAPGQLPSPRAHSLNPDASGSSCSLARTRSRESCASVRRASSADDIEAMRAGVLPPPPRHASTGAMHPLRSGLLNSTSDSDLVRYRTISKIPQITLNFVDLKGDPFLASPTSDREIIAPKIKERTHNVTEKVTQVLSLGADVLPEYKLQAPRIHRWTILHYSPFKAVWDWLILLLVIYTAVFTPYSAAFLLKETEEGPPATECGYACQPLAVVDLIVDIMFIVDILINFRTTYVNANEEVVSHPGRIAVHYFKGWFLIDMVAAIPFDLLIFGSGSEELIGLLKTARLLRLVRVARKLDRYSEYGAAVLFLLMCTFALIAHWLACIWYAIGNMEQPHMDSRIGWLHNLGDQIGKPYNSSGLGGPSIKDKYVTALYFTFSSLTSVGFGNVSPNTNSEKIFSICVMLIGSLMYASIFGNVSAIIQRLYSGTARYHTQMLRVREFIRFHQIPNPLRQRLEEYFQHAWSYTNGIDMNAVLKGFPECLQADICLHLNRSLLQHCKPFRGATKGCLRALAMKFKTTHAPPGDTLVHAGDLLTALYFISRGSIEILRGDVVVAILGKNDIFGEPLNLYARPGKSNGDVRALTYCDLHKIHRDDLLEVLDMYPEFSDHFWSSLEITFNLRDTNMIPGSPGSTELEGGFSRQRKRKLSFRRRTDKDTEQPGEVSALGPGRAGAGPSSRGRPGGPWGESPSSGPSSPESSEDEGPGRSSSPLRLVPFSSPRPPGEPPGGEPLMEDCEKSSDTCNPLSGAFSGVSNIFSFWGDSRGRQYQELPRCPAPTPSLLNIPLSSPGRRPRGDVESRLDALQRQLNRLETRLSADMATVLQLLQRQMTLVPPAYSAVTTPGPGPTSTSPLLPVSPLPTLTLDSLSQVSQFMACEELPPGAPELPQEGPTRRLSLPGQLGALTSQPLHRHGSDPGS

Compound | hERG current change (%, negative = inhibition) at 10uM [%]
O=c1c([N+](=O)[O-])c[nH]c2ccccc12 | 19.4
Cc1c(NC(=S)NC(=O)c2ccco2)cccc1-c1nc2ncccc2o1 | 13.3
Cc1cc(Br)ccc1SCC(=O)OCC(=O)NC(C)c1ccccc1 (stereo not drawn) | -2.5
COc1ccc(COCC(O)CN2CCC(C(N)=O)CC2)cc1 (stereo not drawn) | 9.99
O=P1(O)C=C(c2ccccc2)NC(c2ccccc2)=C1 | 1.46
COCCNC(=O)c1n[nH]c2ccccc12 | 18.1
Cl.O=C(CCN1CCCCCC1)c1ccccc1 | -21.1
Cc1cc(Nc2ccccc2N2CCOCC2)n2ncnc2n1 | -17.2
CCOC(=O)C1(Cc2cccc(OC)c2)CCCN(C(=O)CCN2CCCO2)C1 (stereo not drawn) | 2.24
Cc1ccccc1NC(=O)NCCc1ccc(Cl)cc1 | 6.29
CC(=O)c1cc(C(=O)NC2CCCc3c2cnn3-c2cc(C)cc(C)c2)[nH]n1 (stereo not drawn) | -23
Cc1ccc(/C(N)=N/OC(=O)c2ccc(F)cc2)cc1 | 17
COc1ccc(CNC(=O)c2ccc3c(c2)N(C)CCS3)cc1 | -2.44
CCCCN(C(=O)c1cccc(-n2cccc2)c1)c1c(N)n(Cc2ccccc2)c(=O)[nH]c1=O | -17.8
O=[N+]([O-])c1ccc(N=Nc2ccc(O)cc2O)cc1 | 28.4
COc1ccccc1N1CCN(C(=O)C(OC(C)=O)c2ccccc2)CC1 (stereo not drawn) | 8.68
COc1ccc(-c2nc(NC(=O)c3ccc(OCC(=O)N4CCOCC4)c(OC)c3)sc2C)cc1 | 2.47
Cc1nn(CC(=O)NCCCN2CCOCC2)c(C)c1[N+](=O)[O-] | -27.8
CCn1c(=O)c2cc(C(=O)N(C)CC(OC)OC)sc2c2ccccc21 | 0.282
CNS(=O)(=O)c1cc(C(=O)O)ccc1OC | 17.5
Cc1ccc(N2C(=O)N3[C@H](c4ccc(Cl)cc4)[C@@H]4C(=O)N(C5CCCCC5)C(=O)[C@@H]4[C@]3(Cc3ccccc3)C2=O)cc1 | 13.9
CCCCC(=O)NC(c1ccccc1Cl)c1ccc2cccnc2c1O (stereo not drawn) | 15.2
O=C(CN1CCN(c2ccccc2O)CC1)Nc1cc(S(=O)(=O)N2CCCC2)ccc1Cl | -38.3

Compound | hERG current change (%, negative = inhibition) at 10uM [%]
Cc1ccc(-n2nc3c(=O)n(C(C)C(=O)NCc4ccco4)nc(C)c3c2C)cc1 (stereo not drawn) | -41.3
Cn1cc(S(=O)(=O)Nc2ccc(Cl)cc2Cl)c(=O)n(C)c1=O | 1.76
COc1ccc(CNS(=O)(=O)c2ccc(-c3cnc(C4CC4)o3)cc2)cc1 | 2.88
COc1ccc(NCc2nnc(SCC(=O)Nc3ccc(OC)cc3OC)o2)cc1 | -9.35
O=C(c1cc(COc2ccc(F)cc2Cl)on1)N1CCN(C2CCCCC2)C(=O)C1 | -67.9
O=c1[nH]c(=O)n(Cc2ccco2)c(O)c1/C=N/N1CCCCCC1 | -12.3
O=C(c1cnn(C(=O)CN2CCCC2=O)c1)c1ccccc1O | 1.85
Cc1ccc2c(c1)/C(=C/c1ccccc1C)C(=O)N2 | 14.4
O=C(COC(=O)c1cc(Cl)ccc1O)NCC1CCCO1 (stereo not drawn) | -1.37
O=C(NC1CCCCC1)c1cc(-c2ccc(Cl)cc2)on1 | 2.02
COc1ccc(S(=O)(=O)Nc2ccccc2C(=O)NC(C)(C)C)cc1OC | -0.848
Cc1ccc(NC(=O)NC(=O)CSc2nnc(-c3ccc(OC(F)F)cc3)n2N)c(C)c1 | 3.52
COCCN(C(=O)c1csnn1)C(C(=O)NC1CCCCC1)c1ccc(Cl)cc1 (stereo not drawn) | -6.8
O=C(NCCCn1ccnc1)/C(=C\c1ccccc1F)NC(=O)c1ccccc1 | -75
Cc1ccsc1C(=O)Nc1ccc(OCc2ccccc2)cc1 | 15.7
Cc1ccc(C(=O)OCC(=O)Nc2ccc(F)c(Cl)c2)o1 | 17
O=C(NC(c1ccccc1)c1ccccc1)C1CCCO1 (stereo not drawn) | 4.58
O=C(CCCN1C(=O)/C(=C\c2cccs2)SC1=S)Nc1ccc(O)cc1C(=O)O | 2.24
Cc1nn(-c2ccccc2)c(Cl)c1/C=N/NC(=O)CNc1n[nH]c(=O)[nH]c1=O | 18.5
CC(C)Cn1c(N)c(C(=O)COC(=O)C2=COCCO2)c(=O)n(C)c1=O | 14.1
CCN1CCN(CC(=O)N2CCCC(C(=O)c3ccc(Oc4ccccc4)cc3)C2)CC1 (stereo not drawn) | -52.7
Nc1c(C(=O)Nc2ccc(Cl)cc2)sc2nc(N3CCOCC3)c3c(c12)CCCC3 | 15.7
